Measurements reported in a collection of fitness landscapes (doi:10.1126/science.1257360).
The list shows a part of the results.

B1: PhoQ; a variant is named by its letters at X, in order, P23837 (parent)
chain: MKKLLRLFFPLSLRVRFLLATAAVVLVLSLAYGMVALIGYSVSFDKTTFRLLRGESNLFYTLAKWENNKLHVELPENIDKQSPTMTLIYDENGQLLWAQRDVPWLMKMIQPDWLKSNGFHEIEADVNDTSLLLSGDHSIQQQLQEVREDDDDAEMTHSVAVNVYPATSRMPKLTIVVVDTIPVELKSSYMVWSWFIYVLSANLLLVIPLLWVAAWWSLRPIEALAKEVRELEEHNRELLNPATTRELTSLVRNLNRLLKSERERYDKYRTTLTDLTHSLKTPLXXLQXXLRSLRSEKMSVSDAEPVMLEQISRISQQIGYYLHRASMRGGTLLSRELHPVAPLLDNLTSALNKVYQRKGVNISLDISPEISFVGEQNDFVEVMGNVLDNACKYCLEFVEISARQTDEHLYIVVEDDGPGIPLSKREVIFDRGQRVDTLRPGQGVGLAVAREITEQYEGKIVAGESMLGGARMEVIFGRQHSAPKDE

Variants of: B1
Assay: enrichment ratio after two sorts for PhoP signalling (ratio (wild type AVST 3.29)); higher = more functional
Conditions: with PhoP (E. coli)

| Variant | enrichment ratio |
| --- | --- |
| MGAH | 4.56 |
| VRWG | ≤ 0.25 |
| SMEK | ≤ 0.25 |
| YWAM | ≤ 0.25 |
| ACVR | 2 |
| MSKD | ≤ 0.25 |
| HVCD | ≤ 0.25 |
| AHGQ | ≤ 0.25 |
| FAWQ | ≤ 0.25 |
| YTEW | ≤ 0.25 |
| SRDD | ≤ 0.25 |
| WTYD | ≤ 0.25 |
| EKWS | ≤ 0.25 |
| DSNW | ≤ 0.25 |
| QEGS | 10.4 |
| LDQG | ≤ 0.25 |
| FQYY | ≤ 0.25 |
| MMRS | ≤ 0.25 |
| HEKS | ≤ 0.25 |
| DNIK | ≤ 0.25 |
| ITYW | ≤ 0.25 |
| WITR | ≤ 0.25 |
| WKFP | ≤ 0.25 |
| IVMI | ≤ 0.25 |

| Variant | enrichment ratio |
| --- | --- |
| IREI | ≤ 0.25 |
| MTQL | ≤ 0.25 |
| YHFS | ≤ 0.25 |
| LWFT | ≤ 0.25 |
| VSVS | ≤ 0.25 |
| AQHR | ≤ 0.25 |
| RRVR | ≤ 0.25 |
| FWKQ | ≤ 0.25 |
| MLMH | ≤ 0.25 |
| EFDR | ≤ 0.25 |
| WRWT | ≤ 0.25 |
| TSQY | 13.5 |
| NGLP | ≤ 0.25 |
| DCHM | ≤ 0.25 |
| DMEC | ≤ 0.25 |
| KSVW | ≤ 0.25 |
| PQNI | ≤ 0.25 |
| AKIM | 4.82 |
| RPNF | ≤ 0.25 |
| ETTY | ≤ 0.25 |
| DCEP | ≤ 0.25 |
| FEGW | ≤ 0.25 |
| GLNG | ≤ 0.25 |
| HKGH | ≤ 0.25 |

| Variant | enrichment ratio |
| --- | --- |
| VSSD | ≤ 0.25 |
| WWMP | ≤ 0.25 |
| AWVL | 0.631 |
| MPVH | ≤ 0.25 |
| PPCM | ≤ 0.25 |
| QSRN | ≤ 0.25 |
| DLKE | ≤ 0.25 |
| DMSL | ≤ 0.25 |
| ECLC | ≤ 0.25 |
| VCDA | ≤ 0.25 |
| QSMP | ≤ 0.25 |
| EQMM | ≤ 0.25 |
| FRQC | ≤ 0.25 |
| KVAN | ≤ 0.25 |
| VGYW | ≤ 0.25 |
| YRVG | ≤ 0.25 |
| FGFY | ≤ 0.25 |
| LPQI | ≤ 0.25 |
| YYRA | ≤ 0.25 |
| QVVA | ≤ 0.25 |
| AGWM | ≤ 0.25 |
| YVCC | 0.396 |
| FTHG | ≤ 0.25 |
| GDEV | ≤ 0.25 |

| Variant | enrichment ratio |
| --- | --- |
| PPEW | ≤ 0.25 |
| DIFR | ≤ 0.25 |
| ALER | ≤ 0.25 |
| WKAG | ≤ 0.25 |
| MENH | ≤ 0.25 |
| AVID | ≤ 0.25 |
| PMES | ≤ 0.25 |
| SINF | 9.63 |
| PKNF | ≤ 0.25 |
| TYGD | ≤ 0.25 |
| SKMC | 5.31 |
| GLMQ | ≤ 0.25 |
| IGWR | ≤ 0.25 |
| IGMP | ≤ 0.25 |
| PEWR | ≤ 0.25 |
| GRAM | ≤ 0.25 |
| LCTQ | ≤ 0.25 |
| YGML | 6.54 |
| LCEY | ≤ 0.25 |
| QQWN | 13.8 |
| IKWL | ≤ 0.25 |
| PMGP | ≤ 0.25 |
| TCQL | 13.2 |
| RLGP | ≤ 0.25 |

| Variant | enrichment ratio |
| --- | --- |
| FNTE | ≤ 0.25 |
| FHEM | ≤ 0.25 |
| TTEC | ≤ 0.25 |
| LCKA | ≤ 0.25 |
| SDKE | ≤ 0.25 |
| HMRV | ≤ 0.25 |
| QRIS | ≤ 0.25 |
| WKTF | ≤ 0.25 |
| ITIP | ≤ 0.25 |
| HVAK | ≤ 0.25 |
| RDMC | ≤ 0.25 |
| QTTW | ≤ 0.25 |
| AWTV | ≤ 0.25 |
| EDHD | ≤ 0.25 |
| MSFF | 8.62 |
| FYKD | ≤ 0.25 |
| LPLY | ≤ 0.25 |
| ISWN | ≤ 0.25 |
| GHGN | ≤ 0.25 |
| HHLP | ≤ 0.25 |
| IQLR | ≤ 0.25 |
| KLTC | ≤ 0.25 |
| FCGH | ≤ 0.25 |
| SGAD | 0.436 |

| Variant | enrichment ratio |
| --- | --- |
| AMHF | 4.42 |
| PCDI | ≤ 0.25 |
| KYER | ≤ 0.25 |
| RIWL | ≤ 0.25 |
| SLVI | 2.14 |
| QGSQ | 10.9 |
| VHAY | ≤ 0.25 |
| VYND | ≤ 0.25 |
| PRAF | ≤ 0.25 |
| HMYK | ≤ 0.25 |
| YHVT | ≤ 0.25 |
| DPMA | ≤ 0.25 |
| SSLF | 10.3 |
| RVMI | ≤ 0.25 |
| TYKW | ≤ 0.25 |
| SKAY | 2.19 |
| VKWV | ≤ 0.25 |
| YEDT | ≤ 0.25 |
| KPSP | ≤ 0.25 |
| QVLL | ≤ 0.25 |
| FLKP | ≤ 0.25 |
| WWTF | ≤ 0.25 |
| YLFF | ≤ 0.25 |
| YNSN | ≤ 0.25 |

| Variant | enrichment ratio |
| --- | --- |
| FFFI | ≤ 0.25 |
| LIQI | ≤ 0.25 |
| AHGA | ≤ 0.25 |
| LMSQ | ≤ 0.25 |
| ESHV | ≤ 0.25 |
| KDTG | ≤ 0.25 |
| PITN | ≤ 0.25 |
| ADCF | ≤ 0.25 |
| ANCN | 33 |
| TELP | ≤ 0.25 |
| LYMY | ≤ 0.25 |
| IGSV | ≤ 0.25 |
| ASVD | ≤ 0.25 |
| FKTF | ≤ 0.25 |
| FVPF | ≤ 0.25 |
| FFYT | ≤ 0.25 |
| PETL | ≤ 0.25 |
| NRCC | ≤ 0.25 |
| MKEH | ≤ 0.25 |
| ESSQ | ≤ 0.25 |
| MLTN | ≤ 0.25 |
| VNAM | ≤ 0.25 |
| DTPH | ≤ 0.25 |
| QWSH | ≤ 0.25 |

| Variant | enrichment ratio |
| --- | --- |
| TVFI | ≤ 0.25 |
| INAA | ≤ 0.25 |
| DNLN | ≤ 0.25 |
| YQCR | ≤ 0.25 |
| VPSH | ≤ 0.25 |
| VEAL | ≤ 0.25 |
| IEGR | ≤ 0.25 |
| QEVW | ≤ 0.25 |
| MQCT | ≤ 0.25 |
| STFL | ≤ 0.25 |
| HKDG | ≤ 0.25 |
| LHDP | ≤ 0.25 |
| WQYW | ≤ 0.25 |
| WLDK | ≤ 0.25 |
| SLTG | 12.5 |
| DIRV | 2.11 |
| ECKE | ≤ 0.25 |
| HQKD | ≤ 0.25 |
| QYTL | ≤ 0.25 |
| QHHQ | ≤ 0.25 |
| DNMP | ≤ 0.25 |
| AMHR | ≤ 0.25 |
| YGWE | ≤ 0.25 |
| IKHN | ≤ 0.25 |

| Variant | enrichment ratio |
| --- | --- |
| TSFR | ≤ 0.25 |
| DHMA | ≤ 0.25 |
| GGMR | ≤ 0.25 |
| HDWF | ≤ 0.25 |
| NDWC | ≤ 0.25 |
| TPRD | ≤ 0.25 |
| YMHC | ≤ 0.25 |
| WSCA | ≤ 0.25 |
| PSQG | ≤ 0.25 |
| FTSP | ≤ 0.25 |
| RSPC | ≤ 0.25 |
| AICW | ≤ 0.25 |
| ARHQ | ≤ 0.25 |
| NQNH | ≤ 0.25 |
| TDNK | ≤ 0.25 |
| PEIT | ≤ 0.25 |
| VFFT | ≤ 0.25 |
| LENF | ≤ 0.25 |
| PKSQ | ≤ 0.25 |
| ISNM | ≤ 0.25 |
| IVFM | ≤ 0.25 |
| PNHC | ≤ 0.25 |
| DVPI | ≤ 0.25 |
| EMSM | ≤ 0.25 |

| Variant | enrichment ratio |
| --- | --- |
| ITCN | ≤ 0.25 |
| LRGY | ≤ 0.25 |
| LNDW | ≤ 0.25 |
| MSKV | ≤ 0.25 |
| LFCR | ≤ 0.25 |
| IFIH | ≤ 0.25 |
| NMQR | ≤ 0.25 |
| VPNN | ≤ 0.25 |
| VRKI | ≤ 0.25 |
| KYGC | ≤ 0.25 |
| MTED | ≤ 0.25 |
| IVSD | ≤ 0.25 |
| MCVI | ≤ 0.25 |
| PPHH | ≤ 0.25 |
| QTWV | ≤ 0.25 |
| RYYM | ≤ 0.25 |
| TLWY | ≤ 0.25 |
| EDYV | ≤ 0.25 |
| EECE | ≤ 0.25 |
| VNYD | ≤ 0.25 |
| SFFI | ≤ 0.25 |
| QYWH | ≤ 0.25 |
| RYYS | ≤ 0.25 |
| DWGV | ≤ 0.25 |

| Variant | enrichment ratio |
| --- | --- |
| DMLG | ≤ 0.25 |
| QGFL | 1.75 |
| DVVS | ≤ 0.25 |
| NTCG | ≤ 0.25 |
| QYFN | ≤ 0.25 |
| NEAS | 8.28 |
| PHQP | ≤ 0.25 |
| QHTH | ≤ 0.25 |
| HCGS | ≤ 0.25 |
| SHPM | ≤ 0.25 |
| MSAG | 9.23 |
| IRNL | ≤ 0.25 |
| TICK | 1.1 |
| AMWH | ≤ 0.25 |
| HADA | ≤ 0.25 |
| EYNS | ≤ 0.25 |
| ECSW | ≤ 0.25 |
| IFLD | ≤ 0.25 |
| SARD | ≤ 0.25 |
| YTCC | ≤ 0.25 |
| IGYI | ≤ 0.25 |
| LDPH | ≤ 0.25 |
| TCWL | 7.59 |
| YNQE | ≤ 0.25 |

| Variant | enrichment ratio |
| --- | --- |
| KGIW | ≤ 0.25 |
| HMDM | ≤ 0.25 |
| TLGY | 3.25 |
| IPSE | ≤ 0.25 |
| HTSR | ≤ 0.25 |
| FKDM | ≤ 0.25 |
| EFCW | ≤ 0.25 |
| FCPD | ≤ 0.25 |
| DHQY | ≤ 0.25 |
| KTDS | ≤ 0.25 |
| KLFN | ≤ 0.25 |
| MWYI | ≤ 0.25 |
| NNTD | ≤ 0.25 |
| IFPD | ≤ 0.25 |
| RGKC | ≤ 0.25 |
| SIIM | 0.917 |
| FTHN | ≤ 0.25 |
| STNM | 11.4 |
| ANYI | ≤ 0.25 |
| YSDA | ≤ 0.25 |
| DDMA | ≤ 0.25 |
| RKQS | ≤ 0.25 |
| LFDI | ≤ 0.25 |
| GQYL | ≤ 0.25 |

| Variant | enrichment ratio |
| --- | --- |
| FQKL | ≤ 0.25 |
| PLSS | ≤ 0.25 |
| ACPT | ≤ 0.25 |
| GQQW | ≤ 0.25 |
| VPKY | ≤ 0.25 |
| VQPL | ≤ 0.25 |
| MQIP | ≤ 0.25 |
| PEAQ | ≤ 0.25 |
| FPNC | ≤ 0.25 |
| MLRP | ≤ 0.25 |
| GGLY | 9.96 |
| ICAR | ≤ 0.25 |
| TDSS | 8.58 |
| NSIS | ≤ 0.25 |
| MGDF | ≤ 0.25 |
| MKTC | ≤ 0.25 |
| FKTK | ≤ 0.25 |
| KRYR | ≤ 0.25 |
